# Laboratory results published in PubChem BioAssay AID485364 (National Center for Advancing Translational Sciences (NCATS), 2010).
# Hit rate of the full screen: of about 360,000 compounds, about 11,000 (3.1%) were called active. The inconclusive results got no clear call from the source; some entries with a clear call stand among them for comparison. Calls follow the shape of the dose curve; as a rule, active = well fitted inhibition curve with a large enough effect; inconclusive = small, poorly fitted or top-dose-only effect; inactive = no such curve, though single readings can be large or run the other way. No potency is given beside an inconclusive call; the fits are too rough.
# Target: Schistosoma mansoni thioredoxin glutathione reductase (TGR) (UniProt Q962Y6)
# Assay: qHTS Assay for the Inhibitors of Schistosoma Mansoni Peroxiredoxins; also: nearly all actives have a fitted effect of over 60% in size
# Details: purified TGR, DTNB reduction, TNB absorbance 405 nm; series mostly up to 114 µM
# Summary of the method: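 Kinetic colorimetric format: TGR-catalysed, NADPH-driven DTNB reduction monitored via TNB absorbance. Enzyme dispensed at 20 nM; compound exposure 15 min at room temperature before reaction start.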
# Potency is read from the fitted curve at half-maximal effect; tags tell the direction and shape of the fitted curve.
row,SMILES,Potency
1,N#Cc1cc(C(=O)c2cc(Br)ccc2O)cn(C2CC2)c1=O,"inconclusive [inhibitor, full curve, poor fit]"
2,Cc1ccccc1-c1cc(C(=O)Nc2sc(C)c(C)c2C(N)=O)c2ccccc2n1,inactive
3,CN(Cc1ccon1)C(=O)CC1C(=O)NCCN1Cc1cccc(F)c1F (configuration not stated),"inconclusive [inhibitor, partial curve]"
4,NC(=S)N/N=C/C=C/c1ccccc1,inactive
5,CC1CN(O)C2CCc3nonc3C12O (configuration not stated),"inconclusive [inhibitor, partial curve]"
6,O=S(=O)(Cc1ccccc1)c1nc2ccccc2n1Cc1ccccn1,"inconclusive [inhibitor, single point]"
7,Cc1cc(C(=O)COC(=O)c2cc(Cl)ccc2N)c(C)n1Cc1ccco1,inactive
8,CC(C)CN1CCNC(=O)C1CC(=O)NCCc1ccc(C(F)(F)F)cc1 (configuration not stated),"inconclusive [inhibitor, partial curve]"
9,NC(=O)CCCn1c(C(=O)c2ccc(Cl)cc2)c2ccc([N+](=O)[O-])cc2[n+]1[O-],"inconclusive [inhibitor, partial curve]"
10,COCCCNC(=O)CS(=O)Cc1nc(-c2cccc(C)c2)oc1C (configuration not stated),"inconclusive [inhibitor, partial curve]"
11,Cc1ccc2[nH]c(=O)c(CN(Cc3ccco3)C(=O)c3ccncc3)cc2c1,"inconclusive [inhibitor, full curve]"
12,COC(=O)CN1C(=O)[C@H]2[C@@H](c3ccc(C)o3)N3C(=O)CN(CCO)C(=O)[C@@]3(C)[C@H]2C1=O,"inconclusive [inhibitor, partial curve]"
13,c1ccc(-n2ncc3c2ncn2nc(-c4ccco4)nc32)cc1,"inconclusive [inhibitor, partial curve]"
14,O=C(N/N=C/c1sc(=O)n(-c2ccccc2)c1Cl)c1ccncc1,"inconclusive [inhibitor, partial curve]"
15,O=C(NC1CC(=O)N(c2cccc(F)c2)C1)c1ccc(S(=O)(=O)N2CCCC2)cc1 (configuration not stated),inactive
16,COc1ccc(Br)cc1C1N2CC3(C)CN1CC(C)(C2)C3=O (configuration not stated),inactive
17,CC(C)CS(=O)(=O)c1oc(-c2ccc(F)cc2)nc1S(=O)(=O)c1ccccc1,active: 1.12 µM
18,CCOC(=O)c1c(N)sc2c(O)c(Br)ccc12,"inconclusive [inhibitor, partial curve]"
19,CN(C)c1ccc(/C=N\NC(=S)SCN2C(=O)C3CCC(C)(C2=O)C3(C)C)cc1 (configuration not stated),"inconclusive [inhibitor, full curve]"
20,N#Cc1ccc(NC(=O)CN2CCN(c3ccccn3)CC2)cc1,"inconclusive [inhibitor, single point]"
21,Nc1nonc1-c1nc2ccccc2n1CC(=O)NC1CCCC1,inactive
22,O=C(O)c1ccc(N2Cc3ccccc3C2)cc1O,"inconclusive [inhibitor, partial curve]"
23,COc1ccccc1N1CCN(CC(=O)NCc2ccc(Cl)cc2)CC1,"inconclusive [inhibitor, full curve, poor fit]"
24,FC(F)Oc1ccc(NC(=S)NC2CCSc3ccccc32)cc1 (configuration not stated),"inconclusive [inhibitor, partial curve]"

row,SMILES,Potency
1,COc1cc2c(cc1OC)C1O[C@](c3ccsc3)(C2)OC2=C1C(=O)CC(C)(C)C2,"inconclusive [inhibitor, partial curve]"
2,O=C(O)COc1ccccc1C(Nc1ccccn1)c1cc(Cl)c2cccnc2c1O (configuration not stated),active: 0.398 µM
3,CC(=O)N=C1C=CC(=CN(O)C(C)(C)Cc2ccccc2)C=C1,inactive
4,Cc1nn(CCCC(=O)Nc2cc(Oc3ccccc3)cc([N+](=O)[O-])c2)c(C)c1[N+](=O)[O-],inactive
5,CC1CCCCC1NC(=O)/C(C#N)=C/c1ccccc1F (configuration not stated),inactive
6,Cc1ccc(NC(=O)C2CCN(S(C)(=O)=O)CC2)cc1Cl,inactive
7,CCCCn1c(O)c(C(C)=NC(C)c2ccccc2)c(=O)[nH]c1=O (configuration not stated),"inconclusive [inhibitor, single point]"
8,COc1cc(NC(=S)NCC2CCCO2)c(OC)cc1Cl (configuration not stated),"inconclusive [inhibitor, partial curve, poor fit]"
9,Cc1cc(SCC(=O)N2CCN(C(=O)c3ccco3)CC2)c(C)cc1Br,"inconclusive [inhibitor, partial curve]"
10,Cc1ccc2[nH]c3c(c2c1)CN(C(=O)CN1CCCc2ccccc21)CC3,active: 31.6 µM
11,Cc1[nH]nc(SCC(=O)N2CCCCCC2)c1[N+](=O)[O-],inactive
12,CC(C)(C)NC(=O)C(c1ccncc1)N(C(=O)C1CSC(=O)C1)c1ccccc1 (configuration not stated),inactive
13,O=C(O)CSCc1ccc(C(=O)O)o1,"inconclusive [inhibitor, partial curve]"
14,O=Cc1ccc(OCc2ccc3ccccc3c2)cc1,inactive
15,CCCOc1ccc(C(=O)CCN2CCN(C(=O)OCC)CC2)cc1,active: 100 µM
16,Cc1cccc(-c2nc3scc(CCNC(=O)c4ccc(Br)o4)n3n2)c1,inactive
17,Cc1ccc(N2C(=O)[C@@H]3[C@H](C2=O)[C@H]2C=CC=NN2[C@@H]3C(=O)Nc2ccccc2)cc1,"inconclusive [inhibitor, partial curve]"
18,O=C(/C=C/c1ccccc1)n1cnnc1SC/C=C/c1ccccc1,"inconclusive [inhibitor, full curve]"
19,Cc1cc(C)cc(NC(=O)C(OC(=O)c2ccc(NC(=O)CC#N)cc2)c2ccccc2)c1 (configuration not stated),inactive
20,CCOC(=O)N1CCN(C(=O)c2cc3ccc(OC)cc3[nH]2)CC1,inactive
21,O=C(CN1C(=O)C2CC=CCC2C1=O)Nc1nc2ccccc2[nH]1 (configuration not stated),inactive
22,CC(=C/c1ccc(C(C)C)cc1)/C=N/NC(=O)c1ccncc1,inactive
23,COc1ccc(N2CCN(C(=O)CSc3nnc4c5cc(C)ccc5n(C)c4n3)CC2)cc1,"inconclusive [inhibitor, full curve, poor fit]"
24,COc1ccc(C(C)=O)cc1COC(=O)CCNS(=O)(=O)c1ccc(C(C)=O)cc1,active: 10 µM

row,SMILES,Potency
1,CCCc1[nH]nc2c1C(Cc1ccccc1)C(C#N)=C(N)O2 (configuration not stated),"inconclusive [inhibitor, partial curve]"
2,CC(=O)/C=C\c1ccc(OC(=O)c2cccnc2)cc1,"inconclusive [inhibitor, single point]"
3,COc1ccc(C2CC(c3cccs3)=NN2C(=O)CCC(=O)O)cc1 (configuration not stated),inactive
4,O=C(COC(=O)CCC1CCCC1)NCc1ccc(Cl)cc1,"inconclusive [inhibitor, single point]"
5,COC(=O)c1sc(N2C(=O)C(O)=C(C(=O)c3ccc(C)o3)C2c2cccs2)nc1C (configuration not stated),"inconclusive [inhibitor, partial curve, poor fit]"
6,COC(=O)c1ccc(NC(=S)NC(=O)C2CCC2)cc1,"inconclusive [inhibitor, partial curve]"
7,CC#CCN(Cc1ccco1)C(=O)c1ccc(OC2CCN(Cc3ccccn3)CC2)cc1,active: 79.4 µM
8,CCOc1ccc(CN(Cc2ccco2)C(c2cccs2)c2nnnn2C(C)(C)C)cc1 (configuration not stated),"inconclusive [inhibitor, partial curve]"
9,O=C(/C=C/c1ccco1)NC(=S)Nc1nc(-c2ccc(Cl)cc2)cs1,inactive
10,Clc1ncnc2scc(C3COc4ccccc4O3)c12 (configuration not stated),"inconclusive [inhibitor, partial curve]"
11,CC(NC(=O)c1ccccc1Cl)C(=O)N1CCN(Cc2ccc3c(c2)OCO3)CC1 (configuration not stated),active: 14.1 µM
12,CCn1c(SCc2ccccc2Cl)nc(=O)c2c(C(=O)OC)cc(C3CC3)nc21,inactive
13,O=C(CCC(=O)N1CCN(c2ccccc2F)CC1)N1CCN(c2ccc(F)cc2)CC1,inactive
14,N#C/C(=C/c1ccc(N2CCOCC2)o1)c1nc2ccccc2[nH]1,"inconclusive [inhibitor, partial curve]"
15,COc1ccc(S(=O)(=O)NCc2ccco2)cc1NC(=O)c1ccccc1,"inconclusive [inhibitor, partial curve]"
16,COc1ccc(/C=C(/C(=O)c2cccs2)N2C=CC=CC2=C(C#N)C#N)cc1,active: 0.282 µM
17,CC(=O)NC(c1cc(Cl)c2ccccc2c1O)C(C)C (configuration not stated),"inconclusive [inhibitor, single point]"
18,CCCCN(CCCC)C(=O)CCS(=O)(=O)c1ccc2c(c1)n(C)c(=O)c(=O)n2C,"inconclusive [inhibitor, partial curve]"
19,Cc1nc(-c2ccc(O)c(O)c2)cs1,"inconclusive [inhibitor, full curve, poor fit]"
20,CN1C(=O)c2ccccc2Sc2ccc(NC(=O)N3CCN(c4ccccc4F)CC3)cc21,"inconclusive [inhibitor, partial curve]"
21,Cc1ccc(-c2cc(C(=O)N3CCN(c4ccccc4O)CC3)c3ccccc3n2)o1,"inconclusive [inhibitor, partial curve]"
22,COc1ccc(-n2nc3c(c2NC(=O)Cc2cccc(C)c2)CS(=O)C3)cc1 (configuration not stated),"inconclusive [inhibitor, partial curve, poor fit]"
23,O=C(CSc1nnc(CNC(=O)c2ccccc2)n1-c1cccc(Cl)c1)Nc1ccccc1F,inactive
24,Oc1ccccc1C1=Nc2ccccc2N=C(c2ccco2)C1,"inconclusive [inhibitor, partial curve]"
